Laboratory results as given in the supplement of paper PMC12217912.
Some of the results follow. The full chains were built here from the parent and the listed change. Values near 0.05 are background.

B1: TEV protease; numbered along this chain (parent)
chain: MGESLFKGPRDYNPISSSICHLTNESDGHTTSLYGIGFGPFIITNKHLFRRNNGTLVVQSLHGVFKVKDTTTLQQHLVDGRDMIIIRMPKDFPPFPQKLKFREPQREERICLVTTNFQTKSMSSMVSDTSCTFPSGDGIFWKHWIQTKDGQCGSPLVSTRDGFIVGIHSASNFTNTNNYFTSVPKNFMELLTNQEAQQWVSGWRLNADSVLWGGHKVFMVKPEEPFQPVKEATQL

Variants of: B1
Assay: raw area under fraction-flipped curve 0-4 h after induction (AUC4h, not background-subtracted), DNA-recorder readout of cleavage of the substrate (dimensionless); higher = more cleavage of the substrate by the protease variant
Conditions: temperature: 34 °C; time window: 0-4 h after rhamnose induction
Procedure: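 In vivo DNA recorder in E. coli TOP10(DE3) ΔrhaA at 34 °C. Each TEVp single-site mutant (parent TEVp 0) is paired with a single-site variant of the 7-mer TEVs (canonical ENLYFQ|S). The substrate sits between flexible linkers in a Bxb1-sfGFP-TEVs-SsrA fusion, so cleavage stabilises Bxb1 and speeds flipping of a recombination array, read by NGS. The value is the raw area under the fraction-flipped curve over 0-4 h after rhamnose induction (AUC4h), with ≥20 reads per time point. It is not background-subtracted; inactive controls average about 0.047.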
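Note: Bxb1 expression induced with 0.2% (w/v) L-rhamnose at OD600 near 0.5, cultures sampled hourly, flipped fraction per protease–substrate barcode pair counted by paired-end Illumina sequencing.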

Row | Variant | area with substrate ENLYFQC | area with substrate ENLYFQD | area with substrate ENLYFQH | area with substrate ENLYFQL | area with substrate ENLYFQM | area with substrate ENLYFQN | area with substrate ENLYFQP | area with substrate ENLYFQR | area with substrate ENLYFQS | area with substrate ENLYFQT | area with substrate ENLYFQW | area with substrate ENLYFQY | area with substrate ENLYFQF | area with substrate ENLYFQG | area with substrate ENLYFQI | area with substrate ENLYFQK | area with substrate ENLYFQV | area with substrate ENLYFQE | area with substrate ENLYFQQ
1 | MGESLFKGPRDYNPISSSICHLTNESDGHTTSLYGIGFGPFIITNKHLFRRNNGTLVVQSLHGVFKVKDTTTLQQHLVDGRDMIIIRMPKDFPPFPQKLKFRDPQREERICLVTTNFQTKSMSSMVSDTSCTFPSGDGIFWKHWIQTKDGQCGSPLVSTRDGFIVGIHSASNFTNTNNYFTSVPKNFMELLTNQEAQQWVSGWRLNADSVLWGGHKVFMVKPEEPFQPVKEATQL [E103D] | 0.108 | 0.0696 | 0.0916 | 0.0729 | 0.0858 | 0.0728 | 0.0562 | 0.0656 | 0.106 | 0.0595 | 0.0502 | 0.0644 | – | – | – | – | – | – | –
2 | MGESLFKGPRDYNPISSSICHLTNESDGHTTSLYGIGFGPFIITNKHLFRRNNGTLVVQSLHGVFKVKDTTTLQQHLVDGRDMIIIRMPKDFPPFPQKLKFRMPQREERICLVTTNFQTKSMSSMVSDTSCTFPSGDGIFWKHWIQTKDGQCGSPLVSTRDGFIVGIHSASNFTNTNNYFTSVPKNFMELLTNQEAQQWVSGWRLNADSVLWGGHKVFMVKPEEPFQPVKEATQL [E103M] | 0.117 | 0.0805 | 0.0603 | 0.0518 | 0.0792 | 0.0737 | – | 0.0643 | 0.0971 | 0.0666 | 0.066 | 0.0767 | 0.0709 | 0.0825 | 0.06 | 0.0445 | 0.055 | – | –
3 | MGESLFKGPRDYNPISSSICHLTNESDGHTTSLYGIGFGPFIITNKHLFRRNNGTLVVQSLHGVFKVKDTTTLQQHLVDGRDMIIIRMPKDFPPFPQRLKFREPQREERICLVTTNFQTKSMSSMVSDTSCTFPSGDGIFWKHWIQTKDGQCGSPLVSTRDGFIVGIHSASNFTNTNNYFTSVPKNFMELLTNQEAQQWVSGWRLNADSVLWGGHKVFMVKPEEPFQPVKEATQL [K98R] | 0.12 | – | – | 0.0535 | 0.0733 | – | 0.0801 | 0.0571 | 0.106 | 0.0664 | 0.0805 | – | – | – | 0.0568 | 0.0677 | 0.0542 | 0.068 | –
4 | MGESLFKGPRDYNPISSSICHLTNESDGHTTSLYGIGFGPFIITNKHLFRRNNGTLVVQSLHGVFKVKDTTTLQQHLVDGRDMIIITMPKDFPPFPQKLKFREPQREERICLVTTNFQTKSMSSMVSDTSCTFPSGDGIFWKHWIQTKDGQCGSPLVSTRDGFIVGIHSASNFTNTNNYFTSVPKNFMELLTNQEAQQWVSGWRLNADSVLWGGHKVFMVKPEEPFQPVKEATQL [R87T] | 0.0784 | 0.06 | – | 0.0655 | – | – | – | 0.0384 | 0.0758 | 0.0517 | 0.0535 | 0.0563 | – | 0.0643 | 0.0562 | – | 0.0611 | – | –
5 | MGESLFKGPRDYNPISSSICHLTNESDGHTTSLYGIGFGPFIITNKHLFRRNNGTLVVQSLHGVFKVKDTTTLQQHLVDGRVMIIIRMPKDFPPFPQKLKFREPQREERICLVTTNFQTKSMSSMVSDTSCTFPSGDGIFWKHWIQTKDGQCGSPLVSTRDGFIVGIHSASNFTNTNNYFTSVPKNFMELLTNQEAQQWVSGWRLNADSVLWGGHKVFMVKPEEPFQPVKEATQL [D82V] | 0.0487 | – | – | – | – | 0.0512 | 0.0644 | – | 0.0525 | – | 0.0453 | – | – | 0.0732 | – | – | – | – | –
6 | MGESLFKGPRDYNPISSSICHLTNESDGHTTSLYGIGFGPFIITNKHLFRRNNGTLVVQSLHGVFKVKDTTTLQQHLVDGRDMIIIRMPKDFPPFPQKEKFREPQREERICLVTTNFQTKSMSSMVSDTSCTFPSGDGIFWKHWIQTKDGQCGSPLVSTRDGFIVGIHSASNFTNTNNYFTSVPKNFMELLTNQEAQQWVSGWRLNADSVLWGGHKVFMVKPEEPFQPVKEATQL [L99E] | 0.0986 | – | – | – | 0.0617 | – | 0.0533 | 0.0542 | 0.0763 | – | – | 0.0601 | – | 0.149 | 0.0367 | 0.0765 | – | – | –
7 | MGESLFKGPRDYNPISSSICHLTNESDGHTTSLYGIGFGPFIITNKHLFRRNNGTLVVQSLHGVFKVKDTTTLQQHLVDGRDMIIIRMPKDFPPFPQKKKFREPQREERICLVTTNFQTKSMSSMVSDTSCTFPSGDGIFWKHWIQTKDGQCGSPLVSTRDGFIVGIHSASNFTNTNNYFTSVPKNFMELLTNQEAQQWVSGWRLNADSVLWGGHKVFMVKPEEPFQPVKEATQL [L99K] | 0.0804 | – | – | – | – | – | – | – | 0.0766 | – | – | – | – | – | – | 0.0563 | – | – | 0.0533
8 | MGESLFKGPRDYNPISSSICHLTNESDGHTTSLYGIGFGPFIITNKHLFRRNNGTLVVQSLHGVFKVKDTTTLQQHLVDGRDMIIIRMPKDFPPFPQKVKFREPQREERICLVTTNFQTKSMSSMVSDTSCTFPSGDGIFWKHWIQTKDGQCGSPLVSTRDGFIVGIHSASNFTNTNNYFTSVPKNFMELLTNQEAQQWVSGWRLNADSVLWGGHKVFMVKPEEPFQPVKEATQL [L99V] | 0.0974 | – | 0.113 | 0.0643 | 0.0821 | – | – | 0.0622 | 0.0954 | 0.0576 | 0.0637 | 0.109 | – | – | 0.0545 | – | – | – | 0.0734
9 | MGESLFKGPRDYNPISSSICHLTNESDGHTTSLYGIGFGPFIITNKHLFRRNNGTLVVQSLHGVFKVKDTTTLQQHLVDGRDMIIIRMPKDFPPFPWKLKFREPQREERICLVTTNFQTKSMSSMVSDTSCTFPSGDGIFWKHWIQTKDGQCGSPLVSTRDGFIVGIHSASNFTNTNNYFTSVPKNFMELLTNQEAQQWVSGWRLNADSVLWGGHKVFMVKPEEPFQPVKEATQL [Q97W] | 0.119 | – | – | – | – | – | – | – | 0.0975 | – | – | 0.072 | 0.0779 | 0.104 | 0.0537 | 0.0591 | 0.0732 | – | –
10 | MGESLFKGPRDYNPISSSICHLTNESDGHTTSLYGIGFGPFIITNKHLFRRNNGTLVVQSLHGVFKVKDTTTLQQHLVDGRDMVIIRMPKDFPPFPQKLKFREPQREERICLVTTNFQTKSMSSMVSDTSCTFPSGDGIFWKHWIQTKDGQCGSPLVSTRDGFIVGIHSASNFTNTNNYFTSVPKNFMELLTNQEAQQWVSGWRLNADSVLWGGHKVFMVKPEEPFQPVKEATQL [I84V] | 0.123 | 0.0752 | – | 0.0467 | 0.126 | 0.0791 | – | 0.0459 | 0.11 | 0.0614 | – | 0.0735 | 0.0956 | 0.132 | 0.054 | 0.067 | 0.0437 | – | 0.0505
